Measurements as given in PubChem BioAssay (NCATS).
The list shows a part of the results. These are further read-outs of the screen, such as a control signal, another cell line or another target. No call is given for them. For part of these data: Most of these compounds were active or inconclusive in the main read-out, so they are no random draw. Potencies come from curve fits of mixed quality, noted in brackets.

Columns and labels:
[1] = qHTS drug screen for cell cycle checkpoint inhibitors in PARPi-resistant BRCA-mutant ovarian cancer cell lines. (AID 1963452); settings: PEO1/OlaR viability, CellTiter-Glo luminescence, 96 h
Summary of the method: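 PEO1, PEO4 and PEO1/OlaR ovarian cancer cells, 600 per well, exposed 96 h at 37C to a dilution series. Viability read by CellTiter-Glo luminescence, normalized to DMSO and empty wells; activity summarized as Z-AUC.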

[2] = qHTS for identification of novel therapeutic agents for treatment of microphthalmiaassociated transcription factor (MiT) renal cell carcinoma (RCC) (AID 1963991); settings: CellTiter-Glo, 48 h; for z-score: stronger effect = lower value
Summary of the method: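 Viability of three TFE3-fusion renal carcinoma lines measured by CellTiter-Glo after 48 h treatment with each of 1912 compounds at 11 concentrations. Responses scaled between DMSO (100%) and empty wells (0%) before curve fitting.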

[3] = TFE3-RCC UOK109 viability, measured here: UOK109 Z-AUC
[4] = TFE3-RCC viability, measured here: UOK124 Z-AUC
[5] = TFE3-RCC viability, measured here: UOK145 Z-AUC
[6] = TFE3-RCC viability, measured here: UOK145 cell viability
[7] = TFE3-RCC viability, measured here: UOK124 cell viability
[8] = measured here: PEO1 parental viability
Tags describe the fitted curve by direction and shape.

Row | Compound | AC50 ([1]; measured here: PEO4 viability) | z-score [2, 3] | z-score [2, 4] | z-score [2, 5] | AC50 [2, 6] | AC50 [2, 7] | AC50 [1, 8]
1 | CC1(C)Cc2c(sc(NC(=S)NC(=O)c3ccccc3)c2C(=O)O)CO1 | 3.09 µM [rising, partial curve, poor fit] | -0.0984 | 0.0134 | 1.06 | 33.2 µM [falling, single point] |  | 
2 | CCc1cc2c(cc1N1CCC(N3CCOCC3)CC1)C(C)(C)c1[nH]c3cc(C#N)ccc3c1C2=O | 1.51 µM [falling, partial curve, poor fit] | -0.166 | 0.45 | -1.06 | 0.00469 µM [rising, full curve] | 0.00833 µM [rising, full curve, poor fit] | 
3 | C[C@H]1[C@@H](OC(=O)CCC(=O)O)O[C@@H]2O[C@@]3(C)CC[C@@H]4[C@H](C)CC[C@@H]1[C@@]24OO3 |  | 0.187 | 0.455 | 0.175 | 23.5 µM [falling, partial curve] | 20.9 µM [falling, partial curve] | 4.36 µM [falling, partial curve]
4 | COc1cccc(-c2ccc(NC(=O)C3=C(C(=O)O)CCC3)c(F)c2)c1 | 4.36 µM [falling, full curve, poor fit] | 0.473 | 0.489 | 0.439 | 16.6 µM [falling, partial curve] |  | 
5 | O=c1cc(-c2ccc(O)c(O)c2)oc2cc(O)cc(O)c12 | 27.5 µM [falling, single point] | 0.344 | 0.793 | 0.597 | 37.2 µM [falling, partial curve, poor fit] |  | 
6 | O=C(CO)N1CCC(c2[nH]nc(-c3ccc(Cl)cc3)c2-c2ccncn2)CC1 |  | -0.237 | 0.623 | -0.0754 |  | 5.26 µM [falling, partial curve, poor fit] | 5.49 µM [rising, single point]
7 | CC(=O)NCCC(=O)N[C@@H](CCC(N)=O)C(=O)N[C@@H](CO)C(=O)N[C@@H](CCC(N)=O)C(=O)N[C@@H](CCC(N)=O)C(=O)N[C@H](C(=O)N[C@@H](Cc1ccccc1)C(=O)N[C@]1(C)CCCCCCC=CCCC[C@@](C)(C(=O)N[C@@H](CCC(N)=O)C(=O)N[C@@H](CC(N)=O)C(N)=O)NC(=O)[C@H](CC(C)C)NC(=O)[C@H](CC(C)C)NC(=O)[C@@H](CCCNC(=N)N)NC(=O)[C@H](Cc2c[nH]c3ccccc23)NC(=O)[C@H](CC(C)C)NC(=O)[C@H](CC(N)=O)NC1=O)[C@H](C)O |  | 0.56 | 0.614 | 0.769 |  | 37.2 µM [falling, single point] | 0.977 µM [falling, partial curve, poor fit]
8 | N#Cc1cc(NC(=O)Nc2nnc(-c3ccncc3)s2)ccc1-c1cn[nH]c1 |  | 0.843 | 0.529 | 0.769 |  | 0.00166 µM [falling, full curve, poor fit] | 0.0123 µM [rising, full curve, poor fit]
9 | O=C(Nc1ccc(OC(F)(F)F)cc1)c1sccc1NCc1ccnc2ccccc12 |  | -0.0894 | -0.558 | 0.08 | 20.9 µM [falling, partial curve, poor fit] | 33.2 µM [falling, single point] | 27.5 µM [falling, partial curve, poor fit]
10 | Cc1c(Cn2c(C)nc3c(C(=O)O)cc(N4CCOCC4)cc32)cccc1C(F)(F)F | 7.76 µM [falling, partial curve] | -1.74 | -0.631 | -0.788 | 1.48 µM [falling, full curve] |  | 
11 | O=C(NCc1ccccc1)c1csc(Nc2ccncn2)n1 |  | 0.103 | -0.0194 | 0.571 | 10.5 µM [falling, partial curve, poor fit] | 20.9 µM [falling, partial curve] | 2.75 µM [falling, partial curve, poor fit]
12 | CCCCOc1c(C(=O)c2c(F)cc(C)cc2F)cnc2n[nH]cc12 | 0.0309 µM [falling, full curve] | -0.285 | 0.591 | 0.0569 | 7.43 µM [falling, full curve] |  | 
13 | CN[C@@H](C)C(=O)N[C@H]1CCCC[C@H]2CC[C@@H](C(=O)N[C@@H](c3ccccc3)c3cn(CCCCc4ccc(CCCCn5cc([C@@H](NC(=O)[C@@H]6CC[C@@H]7CCCC[C@H](NC(=O)[C@H](C)NC)C(=O)N76)c6ccccc6)nn5)cc4)nn3)N2C1=O | 17.4 µM [falling, partial curve] | -0.668 | -0.994 | 0.152 | 1.66 µM [falling, full curve] | 0.935 µM [falling, partial curve, poor fit] | 
14 | Fc1ccc(CNc2ncnc3ccc(F)cc23)cc1 |  | 0.104 | 0.937 | 0.0745 |  | 8.33 µM [falling, partial curve] | 2.19 µM [falling, partial curve, poor fit]
15 | CN(C)c1ccc(Nc2nc(N)n(C(=O)c3c(F)cccc3F)n2)cc1 |  | 0.0387 | -0.0326 | -0.0249 | 13.2 µM [falling, partial curve] | 20.9 µM [falling, single point] | 19.5 µM [falling, single point]
